Results taken from article PMC4336329 (PLoS ONE, 2015).
Hit rate of the full screen: of about 310,000 compounds, about 2,200 (0.71%) showed an effect of 50% or more. The effect is printed as a negative number. This is one part of the list.

target: human ether-à-go-go-related gene (hERG) potassium channel (human, UniProt Q12809); assay: primary screen, population patch clamp on CHO cells stably expressing hERG
Sequence (Q12809 whole entry, looked up): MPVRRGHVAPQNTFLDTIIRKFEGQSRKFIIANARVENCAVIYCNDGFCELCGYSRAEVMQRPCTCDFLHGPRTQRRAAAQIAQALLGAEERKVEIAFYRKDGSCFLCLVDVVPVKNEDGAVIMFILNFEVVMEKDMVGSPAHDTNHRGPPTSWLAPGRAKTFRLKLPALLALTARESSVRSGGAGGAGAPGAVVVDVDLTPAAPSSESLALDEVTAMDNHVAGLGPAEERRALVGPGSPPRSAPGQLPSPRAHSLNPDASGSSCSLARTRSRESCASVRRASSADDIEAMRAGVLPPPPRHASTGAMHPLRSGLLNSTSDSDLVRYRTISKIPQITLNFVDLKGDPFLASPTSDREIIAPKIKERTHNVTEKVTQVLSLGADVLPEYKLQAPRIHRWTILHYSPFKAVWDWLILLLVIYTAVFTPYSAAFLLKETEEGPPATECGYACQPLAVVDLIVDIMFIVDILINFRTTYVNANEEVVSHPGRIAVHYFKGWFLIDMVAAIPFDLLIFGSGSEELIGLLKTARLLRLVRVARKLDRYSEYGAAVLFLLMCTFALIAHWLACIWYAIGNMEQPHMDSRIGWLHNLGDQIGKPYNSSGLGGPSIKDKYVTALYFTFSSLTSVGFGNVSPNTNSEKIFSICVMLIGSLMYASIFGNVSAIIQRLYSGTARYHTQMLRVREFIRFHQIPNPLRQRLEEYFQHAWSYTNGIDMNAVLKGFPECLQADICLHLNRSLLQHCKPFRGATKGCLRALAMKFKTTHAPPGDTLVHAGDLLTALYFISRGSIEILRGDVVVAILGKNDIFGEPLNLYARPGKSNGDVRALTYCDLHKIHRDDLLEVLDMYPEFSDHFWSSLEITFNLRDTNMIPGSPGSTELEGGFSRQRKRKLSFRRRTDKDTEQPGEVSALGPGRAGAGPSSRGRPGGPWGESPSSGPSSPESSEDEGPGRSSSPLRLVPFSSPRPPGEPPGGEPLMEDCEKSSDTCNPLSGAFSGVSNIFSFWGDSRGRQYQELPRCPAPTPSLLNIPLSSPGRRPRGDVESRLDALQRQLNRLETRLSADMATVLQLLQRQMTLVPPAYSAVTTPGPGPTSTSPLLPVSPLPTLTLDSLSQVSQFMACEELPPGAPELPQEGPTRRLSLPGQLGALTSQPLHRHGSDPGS

| Structure (SMILES) | hERG current change (%, negative = inhibition) at 1uM [%] |
| --- | --- |
| O=[N+]([O-])c1ccc(S(=O)(=O)NCCc2ccncc2)cc1 | -12 |
| CC1CN(C(=O)C(C)Sc2nnnn2C)CC(C)O1 (centres unmarked) | 9.36 |
| COc1ccc(/C=C(\NC(=O)c2cccs2)C(=O)NN)cc1OC | 6.72 |
| C/C(CC(=O)Nc1cc(C)ccn1)=N\NC(=O)C(=O)Nc1cccc(C)c1 | -1.47 |
| CCOCCCNS(=O)(=O)c1ccc(NC(=O)C2CC(=O)N(c3ccc(C)cc3)C2)cc1 (centres unmarked) | 11.4 |
| O=C(c1cnccn1)N1CCc2c([nH]c3ccccc23)C1c1cccc(Cl)c1 (centres unmarked) | -8.37 |
| COc1ccc(-c2oc3ccc(-c4cc(OC)c(OC)c(OC)c4)cc3c2-c2ccc(OC)nc2)cc1 | 11.4 |
| COc1cc(OC)cc(C(=O)N2CCC(N3CCN(c4ccccc4)CC3)CC2)c1 | -10.7 |
| CCOc1ccccc1/C=N/n1c(COc2ccccc2)n[nH]c1=S | 8.49 |
| O=C(NCCO)c1cccc(Nc2nc(-c3ccccc3)c3cc(Cl)ccc3n2)c1 | 0.423 |
| COc1cccc(CCNC(=O)c2cc(COc3c(F)cccc3F)on2)c1 | -8.43 |
| CCN(CC)CCCNC(=O)c1ccc(S(=O)(=O)Nc2ccc(C)c(C)c2)cc1 | 4.02 |
| COc1ccc(CN(C)C(=O)c2cccc(NS(=O)(=O)c3ccccc3)c2)cc1F | 0.534 |
| Cc1cccc2sc(NS(=O)(=O)c3ccccc3)nc12 | 1.07 |
| O=C(O/N=C1/CCSc2ccccc21)c1ccc(F)cc1 | 10.5 |
| CC(C)c1ccc(/C=N/NC(=O)c2nnn(-c3nonc3N)c2CN(C)C2CCCCC2)cc1 | 10.4 |
| Cc1ccc(S(=O)(=O)N2CC(O)CC2C(=O)O)cc1 (centres unmarked) | 15.9 |
| CC1CCN(CCc2nc3cc(NC(=O)COc4ccc([N+](=O)[O-])cc4)ccc3n2C)CC1 | -2.45 |
| COc1ccccc1C(=O)Nc1ccc(N2CCN(S(C)(=O)=O)CC2)cc1 | 13 |
| CC(C(=O)NC1CCCC1)N(C(=O)c1snc(C(N)=O)c1N)c1ccc2c(c1)OCCO2 (centres unmarked) | 1.93 |
| CC1=CC2=NC(=O)/C(=C\c3cn(C)c4ccccc34)C(=N)N2O1 | 4.1 |
| CCOC(=O)c1sc(NC(=S)NC(=O)c2cccc(Cl)c2)c(C(=O)OCC)c1C | 1.03 |
| COC(=O)c1ccc(=O)n(Cc2ccc3c(c2)OCO3)c1 | 15.2 |
